{"source": "the supplement of paper PMC10126150", "note": "Sequences with one replicate were seen in a single cluster, so their values are uncertain.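 Further: ATP exposure 15 min at 22 °C before imaging.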"}
{"test_system": "ATP", "test": "switch fluorescence ratio, 500 uM ATP over buffer (Cy3 cluster intensity, sum of 5 cycles each) (fold (ratio)); higher = stronger signal-on switching upon ATP binding; sequences stand for … in TCGTCGGCAGCGTCAGATGTGTATAAGAGACAGTTTTTTTTTTTTTTTTTTTTTTTTT…TC", "details": "aptamer strand: ATP DNA aptamer (quencher-CACCTGGGGGAGTATTGCGGAGGAAGG + anchor), 100 nM annealed; ATP concentration: 500 uM; one replicate", "how_it_was_run": "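Clusters carrying Cy3-labelled switching strands on a modified Illumina MiSeq flow-cell were annealed to 100 nM quencher-labelled ATP aptamer and imaged in selection buffer. They were imaged again after 15 min with 500 uM ATP at 22 °C, over five buffer/ATP cycles with NaOH stripping and re-annealing in between. For each cluster, the fluorescence ratio is the summed Cy3 intensity of the target cycles divided by that of the buffer cycles, averaged per switch-domain sequence. Clusters outside 100-1000 RFU were left out.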"}
{"sequence": "GTGATATTCA", "switch fluorescence ratio": 0.983}
{"sequence": "GTGATCGCCT", "switch fluorescence ratio": 0.969}
{"sequence": "GTGATCGGCA", "switch fluorescence ratio": 0.978}
{"sequence": "GTGATCTCGT", "switch fluorescence ratio": 1.05}
{"sequence": "GTGATGGGAG", "switch fluorescence ratio": 1.02}
{"sequence": "GTGCAAAGTG", "switch fluorescence ratio": 0.986}
{"sequence": "GTGCAAGGGA", "switch fluorescence ratio": 1.01}
{"sequence": "GTGCAATGCA", "switch fluorescence ratio": 1.02}
{"sequence": "GTGCATATGC", "switch fluorescence ratio": 1.02}
{"sequence": "GTGCATTTGA", "switch fluorescence ratio": 0.972}
{"sequence": "GTGCATTTTG", "switch fluorescence ratio": 1.03}
{"sequence": "GTGCCCACAC", "switch fluorescence ratio": 1.03}
{"sequence": "GTGCCCCGGG", "switch fluorescence ratio": 1.51}
{"sequence": "GTGCCGAGCT", "switch fluorescence ratio": 1.01}
{"sequence": "GTGCCGGGAG", "switch fluorescence ratio": 0.982}
{"sequence": "GTGCCGGGAT", "switch fluorescence ratio": 2.75}
{"sequence": "GTGCGAGTGC", "switch fluorescence ratio": 0.973}
{"sequence": "GTGCGGACTT", "switch fluorescence ratio": 0.96}
{"sequence": "GTGCTAAGAT", "switch fluorescence ratio": 1.03}
{"sequence": "GTGCTACGTT", "switch fluorescence ratio": 1.03}
{"sequence": "GTGCTAGGGG", "switch fluorescence ratio": 1.01}
{"sequence": "GTGCTCCCAG", "switch fluorescence ratio": 1.06}
{"sequence": "GTGCTGCAAC", "switch fluorescence ratio": 1.08}
{"sequence": "GTGCTGGAAA", "switch fluorescence ratio": 1.05}
{"sequence": "GTGCTGGTTG", "switch fluorescence ratio": 0.994}
{"sequence": "GTGCTTATAT", "switch fluorescence ratio": 1.03}
{"sequence": "GTGCTTATTA", "switch fluorescence ratio": 1.04}
{"sequence": "GTGCTTGGAC", "switch fluorescence ratio": 1.02}
{"sequence": "GTGCTTTAGA", "switch fluorescence ratio": 0.967}
{"sequence": "GTGCTTTCAT", "switch fluorescence ratio": 1.03}
{"sequence": "GTGGAAATTT", "switch fluorescence ratio": 1.09}
{"sequence": "GTGGAAGCGG", "switch fluorescence ratio": 0.97}
{"sequence": "GTGGAATGAT", "switch fluorescence ratio": 1.03}
{"sequence": "GTGGAATTAG", "switch fluorescence ratio": 1.01}
{"sequence": "GTGGACAAAA", "switch fluorescence ratio": 0.93}
{"sequence": "GTGGACATCT", "switch fluorescence ratio": 1.07}
{"sequence": "GTGGACGGAT", "switch fluorescence ratio": 1.01}
{"sequence": "GTGGAGTGAC", "switch fluorescence ratio": 0.994}
{"sequence": "GTGGATATGT", "switch fluorescence ratio": 0.983}
{"sequence": "GTGGATCAGA", "switch fluorescence ratio": 0.948}
{"sequence": "GTGGATCAGG", "switch fluorescence ratio": 1.06}
{"sequence": "GTGGCAATTT", "switch fluorescence ratio": 1.09}
{"sequence": "GTGGCCGGTG", "switch fluorescence ratio": 1.01}
{"sequence": "GTGGCGCGGC", "switch fluorescence ratio": 0.969}
{"sequence": "GTGGCGTAAA", "switch fluorescence ratio": 1.02}
{"sequence": "GTGGCTAAGC", "switch fluorescence ratio": 1.01}
{"sequence": "GTGGCTGTGC", "switch fluorescence ratio": 0.958}
{"sequence": "GTGGGAGGCC", "switch fluorescence ratio": 1.04}
{"sequence": "GTGGGCACAT", "switch fluorescence ratio": 0.961}
{"sequence": "GTGGGGACGA", "switch fluorescence ratio": 1.04}
{"sequence": "GTGGGTATCA", "switch fluorescence ratio": 1.07}
{"sequence": "GTGGGTTCAA", "switch fluorescence ratio": 1.01}
{"sequence": "GTGGGTTCAC", "switch fluorescence ratio": 0.963}
{"sequence": "GTGGTAATAG", "switch fluorescence ratio": 1.02}
{"sequence": "GTGGTATTCA", "switch fluorescence ratio": 0.975}
{"sequence": "GTGGTCCGCT", "switch fluorescence ratio": 0.996}
{"sequence": "GTGGTCCTA", "switch fluorescence ratio": 0.966}
{"sequence": "GTGGTCGCAA", "switch fluorescence ratio": 1.01}
{"sequence": "GTGGTGCCGC", "switch fluorescence ratio": 1.01}
{"sequence": "GTGGTGGAGT", "switch fluorescence ratio": 0.95}
{"sequence": "GTGGTGGTGC", "switch fluorescence ratio": 0.968}
{"sequence": "GTGGTGTGCT", "switch fluorescence ratio": 0.985}
{"sequence": "GTGTAATCAC", "switch fluorescence ratio": 0.939}
{"sequence": "GTGTACCGGT", "switch fluorescence ratio": 0.968}
{"sequence": "GTGTACGAGC", "switch fluorescence ratio": 1.1}
{"sequence": "GTGTAGCGCA", "switch fluorescence ratio": 0.995}
{"sequence": "GTGTAGGTGT", "switch fluorescence ratio": 1.14}
{"sequence": "GTGTATCGC", "switch fluorescence ratio": 1.03}
{"sequence": "GTGTATGCGA", "switch fluorescence ratio": 1.01}
{"sequence": "GTGTATTATA", "switch fluorescence ratio": 0.999}
{"sequence": "GTGTCCATTA", "switch fluorescence ratio": 1.01}
{"sequence": "GTGTCCCCAG", "switch fluorescence ratio": 1.23}
{"sequence": "GTGTCGAGTT", "switch fluorescence ratio": 1.01}
{"sequence": "GTGTCGCAGT", "switch fluorescence ratio": 1.03}
{"sequence": "GTGTCGCGGT", "switch fluorescence ratio": 0.997}
{"sequence": "GTGTCGCTCT", "switch fluorescence ratio": 0.986}
{"sequence": "GTGTCGGGTG", "switch fluorescence ratio": 1.02}
{"sequence": "GTGTCTATGA", "switch fluorescence ratio": 1.03}
{"sequence": "GTGTCTTGGT", "switch fluorescence ratio": 0.968}
{"sequence": "GTGTGACGGG", "switch fluorescence ratio": 1}
{"sequence": "GTGTGAGGAT", "switch fluorescence ratio": 1}
{"sequence": "GTGTGATGTC", "switch fluorescence ratio": 1.05}
{"sequence": "GTGTGGGAT", "switch fluorescence ratio": 0.993}
{"sequence": "GTGTGGGATG", "switch fluorescence ratio": 1.02}
{"sequence": "GTGTGGTTTG", "switch fluorescence ratio": 1.01}
{"sequence": "GTGTGTCATA", "switch fluorescence ratio": 1.02}
{"sequence": "GTGTGTGTG", "switch fluorescence ratio": 1.01}
{"sequence": "GTGTGTTGCC", "switch fluorescence ratio": 0.992}
{"sequence": "GTGTTAAGTC", "switch fluorescence ratio": 0.945}
{"sequence": "GTGTTACCCG", "switch fluorescence ratio": 1.04}
{"sequence": "GTGTTGACTG", "switch fluorescence ratio": 0.805}
{"sequence": "GTGTTGGGGA", "switch fluorescence ratio": 0.965}
{"sequence": "GTGTTGGTCG", "switch fluorescence ratio": 1.01}
{"sequence": "GTGTTTACGG", "switch fluorescence ratio": 0.991}
{"sequence": "GTGTTTGGGC", "switch fluorescence ratio": 1.01}
{"sequence": "GTTAAAA", "switch fluorescence ratio": 1.01}
{"sequence": "GTTAAACGG", "switch fluorescence ratio": 1.03}
{"sequence": "GTTAAACTGG", "switch fluorescence ratio": 0.98}
{"sequence": "GTTAAAGAAT", "switch fluorescence ratio": 0.992}
{"sequence": "GTTAAATGAT", "switch fluorescence ratio": 0.993}
{"sequence": "GTTAACTGCA", "switch fluorescence ratio": 1.04}
{"sequence": "GTTAAGACCT", "switch fluorescence ratio": 1.3}
{"sequence": "GTTAAGGA", "switch fluorescence ratio": 1}
{"sequence": "GTTAATAAGT", "switch fluorescence ratio": 1.04}
{"sequence": "GTTAATAGAC", "switch fluorescence ratio": 1}
{"sequence": "GTTAATAGG", "switch fluorescence ratio": 0.973}
{"sequence": "GTTAATCGTA", "switch fluorescence ratio": 0.988}
{"sequence": "GTTAATTCAG", "switch fluorescence ratio": 0.974}
{"sequence": "GTTAATTTGA", "switch fluorescence ratio": 0.97}
{"sequence": "GTTACAAAGA", "switch fluorescence ratio": 1.03}
{"sequence": "GTTACAGC", "switch fluorescence ratio": 0.959}
{"sequence": "GTTACAGTC", "switch fluorescence ratio": 1.01}
{"sequence": "GTTACCAAAT", "switch fluorescence ratio": 0.993}
{"sequence": "GTTACCAGCC", "switch fluorescence ratio": 1.15}
{"sequence": "GTTACCATCG", "switch fluorescence ratio": 0.978}
{"sequence": "GTTACTGACG", "switch fluorescence ratio": 1.08}
{"sequence": "GTTAGAAACA", "switch fluorescence ratio": 0.959}
{"sequence": "GTTAGAGGCA", "switch fluorescence ratio": 0.975}
{"sequence": "GTTAGCGGTA", "switch fluorescence ratio": 0.946}
{"sequence": "GTTAGGAAGG", "switch fluorescence ratio": 0.965}
{"sequence": "GTTAGGTGGT", "switch fluorescence ratio": 1.17}
{"sequence": "GTTAGGTGTA", "switch fluorescence ratio": 1}
{"sequence": "GTTAGGTTAC", "switch fluorescence ratio": 1.04}
{"sequence": "GTTAGTCGAA", "switch fluorescence ratio": 0.997}
{"sequence": "GTTATAAATT", "switch fluorescence ratio": 0.984}
{"sequence": "GTTATAAGAT", "switch fluorescence ratio": 1.02}
{"sequence": "GTTATAATAG", "switch fluorescence ratio": 1.01}
{"sequence": "GTTATAGCGA", "switch fluorescence ratio": 0.986}
{"sequence": "GTTATATCGA", "switch fluorescence ratio": 0.995}
{"sequence": "GTTATATTTC", "switch fluorescence ratio": 0.98}
{"sequence": "GTTATCCATT", "switch fluorescence ratio": 1.01}
{"sequence": "GTTATGGAGT", "switch fluorescence ratio": 1.04}
{"sequence": "GTTATGGTGC", "switch fluorescence ratio": 1.03}
{"sequence": "GTTATGTGGA", "switch fluorescence ratio": 0.976}
{"sequence": "GTTATTCATC", "switch fluorescence ratio": 1.02}
{"sequence": "GTTCAAATGG", "switch fluorescence ratio": 0.99}
{"sequence": "GTTCAACATG", "switch fluorescence ratio": 1}
{"sequence": "GTTCAAGAAA", "switch fluorescence ratio": 0.991}
{"sequence": "GTTCACGACA", "switch fluorescence ratio": 1.04}
{"sequence": "GTTCAGACCA", "switch fluorescence ratio": 1}
{"sequence": "GTTCAGACCT", "switch fluorescence ratio": 1.35}
{"sequence": "GTTCAGGAGA", "switch fluorescence ratio": 1.01}
{"sequence": "GTTCCCATTA", "switch fluorescence ratio": 0.995}
{"sequence": "GTTCCCTATC", "switch fluorescence ratio": 1.02}
{"sequence": "GTTCCGAATT", "switch fluorescence ratio": 1.28}
{"sequence": "GTTCCGGCAT", "switch fluorescence ratio": 1.12}
{"sequence": "GTTCCGTAT", "switch fluorescence ratio": 1.02}
{"sequence": "GTTCCTGGG", "switch fluorescence ratio": 0.955}
{"sequence": "GTTCGAGTTC", "switch fluorescence ratio": 0.986}
{"sequence": "GTTCGGGTGG", "switch fluorescence ratio": 1.04}
{"sequence": "GTTCGGTTAG", "switch fluorescence ratio": 0.993}
{"sequence": "GTTCGTTTTC", "switch fluorescence ratio": 0.998}
{"sequence": "GTTCTAGCTT", "switch fluorescence ratio": 0.996}
